Results published in article PMC4854477.
Results are given in words; binding and its absence hold for the method and conditions named. Binding seen in cells or lysates may run through a third protein. Some binding calls cover weakened binding; strength is not graded here. For some assays here: Where a sequence is shown, tags or fusion partners need not be part of it.

The chains behind the UniProt entries cited, without tags or fusion partners.
UniProt P13861: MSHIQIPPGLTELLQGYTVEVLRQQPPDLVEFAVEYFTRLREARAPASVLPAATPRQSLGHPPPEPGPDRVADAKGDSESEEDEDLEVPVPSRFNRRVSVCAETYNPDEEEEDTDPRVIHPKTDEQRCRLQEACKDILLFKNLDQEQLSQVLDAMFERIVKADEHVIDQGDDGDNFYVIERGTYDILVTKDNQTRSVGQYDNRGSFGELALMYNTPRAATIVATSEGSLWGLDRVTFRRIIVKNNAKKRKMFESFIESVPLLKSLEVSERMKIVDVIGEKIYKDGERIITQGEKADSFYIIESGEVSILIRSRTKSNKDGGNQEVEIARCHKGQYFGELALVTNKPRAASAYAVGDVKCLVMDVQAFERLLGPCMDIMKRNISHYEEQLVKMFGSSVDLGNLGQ
UniProt P10644: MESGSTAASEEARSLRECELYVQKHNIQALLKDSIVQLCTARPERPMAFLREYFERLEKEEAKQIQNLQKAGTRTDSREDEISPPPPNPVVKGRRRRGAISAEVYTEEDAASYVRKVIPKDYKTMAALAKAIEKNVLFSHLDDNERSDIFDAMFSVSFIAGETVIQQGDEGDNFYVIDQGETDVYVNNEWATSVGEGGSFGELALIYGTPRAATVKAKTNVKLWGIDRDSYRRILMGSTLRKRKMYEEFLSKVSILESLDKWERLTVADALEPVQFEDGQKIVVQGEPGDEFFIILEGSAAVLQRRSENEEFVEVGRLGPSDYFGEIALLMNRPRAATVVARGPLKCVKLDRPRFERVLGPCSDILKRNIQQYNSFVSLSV

Key:
[1] = molecular target: HAdV-5 E1A expressed from WT virus (dl309) (HAdV-5) (UniProt P03255); assay: co-IP
[2] = molecular target: WT HAdV-5 E1A, transfected (pcDNA3) (HAdV-5) (UniProt P03255); assay: co-IP; HT1080 cells co-transfected with the PKA subunits, WT E1A and the inhibitors RIAD-EGFP or sAKAPis-EGFP; immunoprecipitation with an anti-E1A antibody; PKA subunits detected by western blot
WT AKAP1, EGFP fusion = molecular target: T1, WT AKAP1, EGFP fusion (UniProt Q92667); assay: co-IP; HT1080 cells co-transfected with PKA subunits and EGFP fusions of AKAP1 constructs; immunoprecipitation with an anti-EGFP antibody; co-precipitating PKA detected by western blot
T1 sequence: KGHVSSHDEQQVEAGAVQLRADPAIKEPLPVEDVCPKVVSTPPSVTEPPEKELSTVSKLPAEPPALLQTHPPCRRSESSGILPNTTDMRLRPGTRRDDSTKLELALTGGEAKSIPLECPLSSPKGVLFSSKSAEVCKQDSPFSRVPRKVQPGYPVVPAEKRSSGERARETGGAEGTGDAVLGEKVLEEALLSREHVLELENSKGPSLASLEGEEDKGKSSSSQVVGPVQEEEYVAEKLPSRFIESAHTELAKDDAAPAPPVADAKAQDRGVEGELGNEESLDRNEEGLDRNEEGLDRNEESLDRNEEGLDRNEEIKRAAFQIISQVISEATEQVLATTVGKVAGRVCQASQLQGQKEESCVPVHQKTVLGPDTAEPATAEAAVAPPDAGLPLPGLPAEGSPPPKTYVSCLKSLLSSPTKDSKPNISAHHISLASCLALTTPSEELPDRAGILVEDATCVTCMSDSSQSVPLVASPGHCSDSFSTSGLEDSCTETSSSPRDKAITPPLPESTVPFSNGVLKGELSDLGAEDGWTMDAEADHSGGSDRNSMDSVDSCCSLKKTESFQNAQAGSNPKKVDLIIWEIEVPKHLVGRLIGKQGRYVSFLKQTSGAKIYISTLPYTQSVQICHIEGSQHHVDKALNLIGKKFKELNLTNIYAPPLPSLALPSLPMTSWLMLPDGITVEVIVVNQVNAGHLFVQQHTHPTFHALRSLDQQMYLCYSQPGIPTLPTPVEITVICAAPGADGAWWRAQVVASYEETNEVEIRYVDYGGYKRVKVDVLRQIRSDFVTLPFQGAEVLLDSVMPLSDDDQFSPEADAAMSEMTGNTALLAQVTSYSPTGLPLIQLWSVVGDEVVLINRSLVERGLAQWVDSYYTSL

[3] = molecular target: WT HAdV-5 E1A, transfected (pcDNA3) (HAdV-5) (UniProt P03255); assay: co-IP; HT1080 cells co-transfected with PKA subunit constructs and E1A constructs; NP40 lysis buffer (150mM NaCl, 50mM Tris-HCL pH 7.5, 0.1% NP-40); immunoprecipitation at 4°C for 4 hours; western blot
[4] = molecular target: HAdV-5 E1A 14–28, EGFP fusion (HAdV-5) (UniProt P03255); assay: as above
[5] = molecular target: HAdV-5 E1A 93–139, EGFP fusion (HAdV-5) (UniProt P03255); assay: as above
[6] = molecular target: HAdV-5 E1A 1–82, EGFP fusion (HAdV-5) (UniProt P03255); assay: as above
[7] = molecular target: HAdV-5 E1A Δ1–29 (HAdV-5) (UniProt P03255); assay: as above
[8] = molecular target: HAdV-5 E1A 139–204, EGFP fusion (HAdV-5) (UniProt P03255); assay: as above
[9] = molecular target: HAdV-5 E1A Δ1–82 (HAdV-5) (UniProt P03255); assay: as above
[10] = molecular target: HAdV-5 E1A Δ1–14 (HAdV-5) (UniProt P03255); assay: as above
[11] = molecular target: HAdV-5 E1A 187–289, EGFP fusion (HAdV-5) (UniProt P03255); assay: as above

Substance | binding [1] | binding [2] | binding (WT AKAP1, EGFP fusion) | binding [3] | binding [4] | binding [5] | binding [6] | binding [7] | binding [8] | binding [9] | binding [10] | binding [11]
PKA regulatory subunit RIIα, endogenous (from UniProt P13861 1-404) | binds | – | – | – | – | – | – | – | – | – | – | –
PKA regulatory subunit RIα, endogenous (from UniProt P10644 1-381) | binds | – | – | – | – | – | – | – | – | – | – | –
WT RIIα, transfected (from UniProt P13861 1-404) | – | binds | binds | binds | binds | no binding | binds | no binding | no binding | no binding | binds | no binding
WT RIα, transfected (from UniProt P10644 1-381) | – | binds | – | binds | binds | no binding | binds | no binding | no binding | no binding | binds | no binding
